According to the supplement of paper PMC4967469:
The IC50 comes from the fitted curve, where viability falls to half of the control; fits outside the tested doses are given as limits. For AUC the same curve is integrated over the 256-fold range of doses and scaled to a fraction: 1 means no effect, lower means more sensitive. Where the top dose is marked as inferred, it comes from the curve model; the source does not state it.

Legend:
Assay in all cases: Viability of human cancer cell lines after 72 h of drug (GDSC screen)
QL-XII-47 = compound: C=CC(=O)N1CCc2ccc(-n3c(=O)ccc4cnc5ccc(-c6cnn(C)c6)cc5c43)cc21 [QL-XII-47]; details: top dose 10.24 µM; top dose inferred
Experimental: (§1)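 Human cancer cell lines in 384-well plates, medium with 10% serum, drug for 72 h over a 256-fold dose range (nine 2-fold or five 4-fold steps up to the top dose). Adherent lines were fixed and stained with the nucleic acid dye Syto60, suspension lines read with resazurin; signal relative to control wells, capped at 0 and 100%. One two-parameter sigmoid per drug and line, fitted in a mixed model over all curves with the slope shared within a line.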

BAY 61-3606 = compound: COc1ccc(-c2cc3nccn3c(Nc3ncccc3C(N)=O)n2)cc1OC [BAY 61-3606]; details: top dose 8 µM; top dose inferred
Experimental: as §1

CCT007093 = compound: O=C1/C(=C/c2cccs2)CC/C1=C\c1cccs1 [CCT007093]; details: top dose 6.6 µM; top dose inferred
Experimental: as §1

KIN001-266 = compound: CCN1CCC(n2cc(CNc3cc(Cl)c4ncc(C#N)c(Nc5ccc(F)c(Cl)c5)c4c3)nn2)CC1 [KIN001-266]; details: top dose 20 µM; top dose inferred
Experimental: as §1

Cell Line	AUC (QL-XII-47)	IC50 (QL-XII-47)	AUC (BAY 61-3606)	IC50 (BAY 61-3606)	AUC (CCT007093)	IC50 (CCT007093)	AUC (KIN001-266)	IC50 (KIN001-266)
M059J (glioma, adherent)	0.447	0.453 µM	0.78	3.58 µM	0.979	> 6.6 µM	0.833	14.5 µM
MC116 (B-cell lymphoma, suspension)	0.788	3.17 µM	0.768	2.22 µM	0.999	> 6.6 µM	0.927	14.2 µM
MC-CAR (haematopoietic neoplasm, suspension)	0.477	0.557 µM	0.635	1.13 µM	0.968	> 6.6 µM	0.849	12.7 µM
MCF7 (breast, adherent)	0.986	> 10.2 µM	0.631	1.16 µM	0.809	3.61 µM	0.981	> 20 µM
MDA-MB-157 (breast, adherent)	0.876	> 10.2 µM	0.988	> 8 µM	0.984	> 6.6 µM	0.959	> 20 µM
MDA-MB-175-VII (breast, adherent)	0.626	1.48 µM	0.92	> 8 µM	0.983	> 6.6 µM	0.943	> 20 µM
MDA-MB-231 (breast, adherent)	0.829	6.93 µM	0.986	> 8 µM	0.982	> 6.6 µM	0.972	> 20 µM
MDA-MB-361 (breast, adherent)	0.864	8.79 µM	0.813	4.27 µM	0.955	> 6.6 µM	0.957	> 20 µM
MDA-MB-415 (breast, adherent)	0.973	> 10.2 µM	0.971	> 8 µM	0.975	> 6.6 µM	0.975	> 20 µM
MDA-MB-436 (breast, adherent)	0.941	> 10.2 µM	0.954	> 8 µM	0.97	> 6.6 µM	0.91	> 20 µM
MDA-MB-453 (breast, adherent)	0.602	1.26 µM	0.986	> 8 µM	0.966	> 6.6 µM	0.885	> 20 µM
MDA-MB-468 (breast, adherent)	0.781	4.08 µM	0.987	> 8 µM	0.965	> 6.6 µM	0.871	17.6 µM
MDST8 (large intestine, adherent)	0.883	> 10.2 µM	0.95	> 8 µM	0.89	> 6.6 µM	0.877	19.7 µM
ME-1 (acute myeloid leukaemia, suspension)	0.832	7.19 µM	0.989	> 8 µM	0.975	> 6.6 µM	0.945	> 20 µM
ME-180 (cervix, adherent)	0.479	0.558 µM	0.968	> 8 µM	0.977	> 6.6 µM	0.839	14.5 µM
MEG-01 (chronic myeloid leukaemia, suspension)	0.525	0.745 µM	0.818	4.18 µM	0.988	> 6.6 µM	0.866	16.1 µM
MEL-JUSO (melanoma, adherent)	0.609	1.32 µM	0.752	2.92 µM	0.931	> 6.6 µM	0.843	16.7 µM
MES-SA (uterus, adherent)	0.927	> 10.2 µM	0.624	1.04 µM	0.987	> 6.6 µM	0.987	> 20 µM
MFE-280 (endometrium, adherent)	0.765	4.75 µM	0.981	> 8 µM	0.982	> 6.6 µM	0.874	> 20 µM
MFE-296 (endometrium, adherent)	0.865	10.1 µM	0.908	> 8 µM	0.985	> 6.6 µM	0.969	> 20 µM
MFE-319 (endometrium, adherent)	0.986	> 10.2 µM	0.826	4.63 µM	0.98	> 6.6 µM	0.898	> 20 µM

Cell Line	AUC (QL-XII-47)	IC50 (QL-XII-47)	AUC (BAY 61-3606)	IC50 (BAY 61-3606)	AUC (CCT007093)	IC50 (CCT007093)	AUC (KIN001-266)	IC50 (KIN001-266)
MFH-ino (soft tissue, adherent)	0.802	6.12 µM	0.893	> 8 µM	0.982	> 6.6 µM	0.909	> 20 µM
MFM-223 (breast, adherent)	0.741	3.1 µM	0.989	> 8 µM	0.985	> 6.6 µM	0.896	> 20 µM
MG-63 (osteosarcoma, adherent)	0.984	> 10.2 µM	0.932	> 8 µM	0.939	> 6.6 µM	0.982	> 20 µM
MHH-ES-1 (Ewing sarcoma, adherent)	0.671	1.9 µM	0.844	5.59 µM	0.951	> 6.6 µM	0.692	4.27 µM
MHH-PREB-1 (B-cell leukaemia, suspension)	0.51	0.681 µM	0.754	2.45 µM	0.984	> 6.6 µM	0.692	4.03 µM
MIA-PaCa-2 (pancreas, adherent)	0.981	> 10.2 µM	0.843	6.53 µM	0.983	> 6.6 µM	0.969	> 20 µM
MKN1 (stomach, adherent)	0.786	4.69 µM	0.829	5.35 µM	0.971	> 6.6 µM	0.955	> 20 µM
MKN28 (stomach, adherent)	0.762	3.74 µM	0.805	4.14 µM	0.958	> 6.6 µM	0.85	15.7 µM
MKN45 (stomach, adherent)	0.811	7.3 µM	0.921	> 8 µM	0.977	> 6.6 µM	0.954	> 20 µM
ML-1 (thyroid, adherent)	0.712	2.84 µM	0.821	5.7 µM	0.978	> 6.6 µM	0.926	> 20 µM
ML-2 (acute myeloid leukaemia, suspension)	0.466	0.523 µM	0.893	7.69 µM	0.979	> 6.6 µM	0.92	> 20 µM
MLMA (hairy cell leukaemia, semi-adherent)	0.748	3.33 µM	0.64	1.22 µM	0.98	> 6.6 µM	0.874	19.7 µM
MN-60 (B-cell leukaemia, suspension)	0.707	2.52 µM	0.881	> 8 µM	0.988	> 6.6 µM	0.907	> 20 µM
MOG-G-CCM (glioma, adherent)	0.81	6.55 µM	0.894	> 8 µM	0.983	> 6.6 µM	0.811	12.9 µM
MOG-G-UVW (glioma, adherent)	0.645	1.59 µM	0.858	6.27 µM	0.97	> 6.6 µM	0.973	> 20 µM
MOLM-13 (acute myeloid leukaemia, suspension)	0.459	0.499 µM	0.279	0.124 µM	0.979	> 6.6 µM	0.865	15.8 µM
MOLP-8 (myeloma, suspension)	0.329	0.219 µM	0.593	0.888 µM	0.978	> 6.6 µM	0.822	11.1 µM
MOLT-4 (lymphoblastic leukaemia, suspension)	0.545	0.828 µM	0.873	5.33 µM	0.978	> 6.6 µM	0.891	15.7 µM
MONO-MAC-6 (acute myeloid leukaemia, suspension)	0.577	1.05 µM	0.617	1.07 µM	0.981	> 6.6 µM	0.861	18.6 µM
MPP-89 (mesothelioma, adherent)	0.853	> 10.2 µM	0.675	1.8 µM	0.967	> 6.6 µM	0.916	> 20 µM
MRK-nu-1 (breast, suspension)	0.964	> 10.2 µM	0.776	2.93 µM	0.989	> 6.6 µM	0.83	11.2 µM

Cell Line	AUC (QL-XII-47)	IC50 (QL-XII-47)	AUC (BAY 61-3606)	IC50 (BAY 61-3606)	AUC (CCT007093)	IC50 (CCT007093)	AUC (KIN001-266)	IC50 (KIN001-266)
MS751 (cervix, adherent)	0.847	6.65 µM	0.907	> 8 µM	0.99	> 6.6 µM	0.984	> 20 µM
MS-1 (small cell lung carcinoma, suspension)	0.662	1.71 µM	0.852	5.19 µM	0.99	> 6.6 µM	0.882	17.2 µM
MSTO-211H (mesothelioma, adherent)	0.988	> 10.2 µM	0.991	> 8 µM	0.991	> 6.6 µM	0.991	> 20 µM
MV-4-11 (leukaemia, suspension)	0.313	0.214 µM	0.151	0.056 µM	0.974	> 6.6 µM	0.876	13.9 µM
MY-M12 (leukaemia, suspension)	0.509	0.679 µM	0.801	4.51 µM	0.964	> 6.6 µM	0.854	19.1 µM
MZ1-PC (pancreas, adherent)	0.61	1.38 µM	0.77	3.77 µM	0.975	> 6.6 µM	0.819	15.1 µM
MZ2-MEL (melanoma, adherent)	0.551	0.902 µM	0.698	1.99 µM	0.976	> 6.6 µM	0.883	> 20 µM
MZ7-mel (melanoma, adherent)	0.828	6.6 µM	0.958	> 8 µM	0.985	> 6.6 µM	0.872	> 20 µM
Mewo (melanoma, adherent)	0.984	> 10.2 µM	0.965	> 8 µM	0.969	> 6.6 µM	0.948	> 20 µM
Mo-T (hairy cell leukaemia, suspension)	0.53	0.773 µM	0.852	6.39 µM	0.987	> 6.6 µM	0.885	> 20 µM
NALM-6 (B-cell leukaemia, suspension)	0.309	0.207 µM	0.476	0.435 µM	0.972	> 6.6 µM	0.819	9.1 µM
NAMALWA (Burkitt lymphoma, suspension)	0.516	0.704 µM	0.88	6.04 µM	0.991	> 6.6 µM	0.888	16.4 µM
NB5 (neuroblastoma, adherent)	0.748	3.32 µM	0.925	> 8 µM	0.971	> 6.6 µM	0.81	10.7 µM
NB6 (neuroblastoma, adherent)	0.639	1.7 µM	0.86	> 8 µM	0.974	> 6.6 µM	0.817	14.6 µM
NB7 (neuroblastoma, adherent)	0.714	2.67 µM	0.669	1.51 µM	0.956	> 6.6 µM	0.855	17 µM
NB10 (neuroblastoma, adherent)	0.899	> 10.2 µM	0.827	4.75 µM	0.986	> 6.6 µM	0.856	15.5 µM
NB12 (neuroblastoma, adherent)	0.652	1.97 µM	0.956	> 8 µM	0.834	6.57 µM	0.91	> 20 µM
NB14 (neuroblastoma, adherent)	0.785	4.12 µM	0.666	1.41 µM	0.982	> 6.6 µM	0.782	7.83 µM
NB69 (neuroblastoma, adherent)	0.488	0.595 µM	0.918	> 8 µM	0.952	> 6.6 µM	0.877	16.1 µM
